According to the supplement of paper PMC3334620:
The full ranking holds about 33,000 sequences; the median of “E-score (-0.5 to 0.5)” is about -0.032, and the highest 2% start at about 0.36. This is one part of the list.

The sequences below were run against T1, Sko1 (UniProt Q02100) (assay: PBM E-score (8-mer binding enrichment) (E-score (-0.5 to 0.5)); higher = stronger / more preferred TF binding; most listed sequences are background and not binding sites). Conditions: protein concentration: 200 nM; construct: GST-full length.
T1 sequence: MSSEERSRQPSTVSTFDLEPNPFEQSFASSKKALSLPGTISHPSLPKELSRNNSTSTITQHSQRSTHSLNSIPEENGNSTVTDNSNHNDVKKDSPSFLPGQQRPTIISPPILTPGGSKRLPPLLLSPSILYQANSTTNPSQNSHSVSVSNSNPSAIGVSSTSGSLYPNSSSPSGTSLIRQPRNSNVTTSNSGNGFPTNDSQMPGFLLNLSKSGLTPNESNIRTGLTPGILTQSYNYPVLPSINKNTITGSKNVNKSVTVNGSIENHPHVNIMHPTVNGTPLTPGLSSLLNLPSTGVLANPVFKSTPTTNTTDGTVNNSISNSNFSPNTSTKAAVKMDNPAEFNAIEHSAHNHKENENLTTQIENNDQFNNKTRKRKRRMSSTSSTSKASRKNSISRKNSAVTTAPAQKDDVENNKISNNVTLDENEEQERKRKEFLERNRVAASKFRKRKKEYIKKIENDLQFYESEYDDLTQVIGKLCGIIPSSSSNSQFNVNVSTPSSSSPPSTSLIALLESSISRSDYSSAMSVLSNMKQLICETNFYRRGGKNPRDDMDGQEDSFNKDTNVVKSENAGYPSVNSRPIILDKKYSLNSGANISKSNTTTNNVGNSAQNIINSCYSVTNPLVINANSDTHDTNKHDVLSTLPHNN
Procedure, shortened: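 PURExpress in vitro transcription/translation supplied GST-tagged yeast transcription factors, either full-length or DNA-binding domain. Applied at about 100-200 nM to universal all-10-mer Agilent arrays double-stranded by primer extension, the bound protein was detected with fluorescent anti-GST. E-scores, modified Wilcoxon-Mann-Whitney statistics, were given by the Universal PBM Analysis Suite to ungapped eight-base words pooled with their reverse complements after masliner normalisation.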

Sequence	PBM E-score
CACGTCTG	0.23
CAGCTAGG	-0.334
ACGTCACA	0.481
CGATATAG	0.0481
GCGGAACA	-0.223
GGGCGACC	-0.351
AAATACAC	0.23
CAACTGCA	0.0816
AGCGCCCC	-0.402
CACGCTCG	-0.0628
CTTTGTTA	0.135
AGTGCAAA	0.158
ACCCGTCA	0.173
ATTATGAC	0.349
CGGGACCC	-0.434
CTTGAGGA	-0.102
AATGGGAC	-0.215
CACGATCG	0.0307
GTGAGCAC	0.108
CAGGTGCA	-0.177
CAAATCGG	-0.117
CAACATAA	0.194
AGTGGGTG	0.00734
AACCCTGG	-0.228
CTTTTTGA	0.11

Sequence	PBM E-score
CCTTGACA	-0.0728
ACTTAGCC	0.0535
AATGTGTG	0.0774
CGCTGTTA	0.00349
ACATATCT	0.231
GTGTCGAA	-0.00179
CCACCACA	-0.0881
AACAAAGG	-0.0827
CCGACTTA	-0.0229
AGCAGGAG	-0.268
ATTGTGTA	0.302
AGAGTCAG	-0.121
AACCTAAA	0.172
AGATGATA	0.215
CACACTTC	0.0732
CCCGTCAA	-0.0876
CATTGCCG	-0.134
AGTAGACA	0.0699
GAAGCCAC	-0.0963
GAAGCAGA	-0.0531
AAACAGCT	-0.0726
GATGAATA	0.239
AGGTACGA	0.053
TAGAGCCA	-0.278
CATGAGTC	0.122

Sequence	PBM E-score
AATGAATC	-0.0655
CACTTCTG	-0.0181
CACTAATC	-0.097
AGCTGCTA	-0.0523
GCTACGAC	0.0459
CATTTTTA	0.0589
CAGCGCGC	-0.234
AACGACTC	-0.129
ACCGGCAG	-0.357
CTGGAAAC	0.162
GCTACACA	-0.0795
CTACATTC	-0.116
GGAAAACC	-0.128
GCCCGTCA	-0.00134
ATTGGGAA	-0.0523
CTATTCCC	-0.282
GACGTTCA	0.187
GCGGCCCA	-0.33
TGCTTTAA	0.0254
AATCCTGA	0.0387
CATGTTCA	-0.136
CCCTTACA	-0.174
CCGAGTGC	-0.279
CACGAATC	0.12
CGTATACA	0.372

Sequence	PBM E-score
ATTAGTAA	0.182
GAGCCCTA	-0.272
ATCGTTCG	-0.0266
GTTCTTGA	0.0936
CATCCATC	-0.238
GCGTCGAC	0.0596
CTCGAACC	-0.216
CACAGGAG	-0.071
CTGTGTGC	0.00517
CGCTACGA	0.122
CGTGCCCC	-0.0366
TAACAGTA	0.126
ACGTTACT	0.334
CATTGTCG	0.0277
AACACAAA	0.0722
TCAAAGCA	0.0567
ACAGTCAA	-0.0134
GCGAGCTA	0.032
AGAGTAAA	0.155
GGACGCAA	0.164
ATAGTAAC	0.0331
ATGCGTCC	-0.124
CAGGCTAG	-0.353
ACGCACGA	0.295
CTGTGAAA	0.135

Sequence	PBM E-score
ATAGTTCG	0.0481
AAATTCCT	-0.126
CGTGTCAG	0.184
CCTCCAGC	-0.349
ATATACAT	0.236
GAAACTAC	0.227
CATTGTAG	-0.0326
CTTGTTCC	-0.0407
AGGTATTG	0.114
ACGACCTC	0.0397
ATTGTTTA	0.193
GAACACTA	0.0303
GCACAGAA	-0.0251
CCGGAGTA	-0.22
CTGCGTTC	-0.0898
CATACCAA	0.143
AGACGATC	-0.191
ACTGGGAC	-0.144
AACAACGT	0.316
GCACAGCA	-0.0488
CCCGCGGG	-0.109
ATCGTCTG	-0.0361
GGACCGTA	-0.236
ACGTGCCA	0.396
GGCGGCCA	-0.211

Sequence	PBM E-score
TATACTAA	0.0782
ATATTCGG	0.0091
ATTTACGC	0.281
GCTTGCTA	-0.191
AGTTGAGA	-0.0321
AAGTTTCA	0.122
CGCACACA	0.1
GGCGCCAA	-0.179
CGTCAGTC	0.375
ACCGAGTC	-0.188
ACCGACAG	-0.182
CCCGACCC	-0.281
ACTATATA	0.303
CTGATAAA	0.123
GATAGCCA	-0.152
AGGCCCAG	-0.158
CATGCTAC	-0.114
CCGTGCTC	-0.252
CCTCGTCC	-0.209
GGTATGAC	0.183
ATATGTTC	0.024
CCTCTGAA	-0.216
ATAATCAC	0.219
TTACAAAA	0.155
GGCCCAGA	-0.342

Sequence	PBM E-score
AAGCCGAT	-0.013
CCCCGGGA	-0.363
AGAAGATC	-0.0987
CCTGCGGC	-0.427
AAACCACC	-0.234
ACTACCCA	0.0746
AGCAACAT	0.0691
CCGAGCTC	-0.217
CCAGTGCA	-0.146
AGGTCATA	0.21
ACATAAAT	0.26
GGACTAAC	-0.161
CAGTCGAG	-0.129
AAAGAATG	0.157
GACCTGGA	-0.3
AACCTCCT	-0.189
AGCCTAAC	-0.0471
GCCCCACC	-0.158
CAATCCGA	0.0951
AGTGGCCC	-0.141
ACCAAAAC	0.0565
TAACACTA	0.235
ACCGGGAG	-0.38
ATGTCTCC	-0.0523
AGGACCGG	-0.319

Sequence	PBM E-score
GGACCGGA	-0.365
CGTGAAGA	0.122
CTGGACGC	-0.0447
GAATATCA	-0.00231
CCTTCTTA	-0.132
GGCAGCCA	-0.314
CACAACCG	0.0241
ATAAGATC	0.0257
CAGATCCC	-0.264
ATGTGGAC	-0.174
CTACTTGA	0.0167
ATGGACGA	0.201
GCTCTAGA	-0.381
TCGACCAA	-0.00288
GTGGCGTA	0.325
TATTCCAA	0.123
CTGTTACC	-0.0257
GCGTAGAC	0.0511
ATGTTGTG	0.186
ACCGGCGC	-0.0852
ACCGCCAA	-0.114
CATTCTTA	0.162
AGGAACTG	-0.208
CGCCAAAA	0.0404
ACTTCGAC	0.0743

Sequence	PBM E-score
CATGCTGG	-0.168
CTCTGATC	0.0207
ATCCAAGA	0.0207
GTGGAATA	0.0555
ACTCCGCG	-0.107
GACGAGCA	0.0719
ACGACAGA	0.108
TGAGATAA	0.197
CGCTCAGA	0.0013
CCTTCGGA	-0.197
AGCGCATA	0.0654
AACTGCCA	-0.184
CTTAGGTC	0.0974
AGCATACG	0.3
ATCCCACG	0.079
CCTATAGC	-0.106
CTAATATC	0.163
GCCAGATA	-0.0254
CCGTCAGC	-0.127
ACCATCAA	0.0462
CTCACTAA	0.118
GCACAGTA	0.0858
CGACTTTC	0.0167
CATGGGAC	-0.0758
GCAGGGCC	-0.219

Sequence	PBM E-score
AACGGTCA	-0.12
GATGGCAA	0.014
GGACGGAC	-0.238
AGTCCTTG	-0.239
CGCCGCTA	-0.329
AGTGCCCA	-0.208
TAAAGCTA	0.0118
ATCGTATC	0.122
GCAAGAAA	0.0512
CCGAGACG	-0.0736
CGCAAGAA	0.0538
AACTGCCG	-0.0532
AATACCGG	0.00982
ATCGTCAG	0.263
ATCACTGA	-0.0268
CTACTGCA	-0.0311
CAGTCAGG	-0.0033
CGCCTGTC	-0.264
GAAATATA	0.24
CAAGAGAG	-0.143
TAGATACA	0.197
AAGGCGTC	0.0251
GTCGAGGA	-0.0503
ACCATGCC	-0.178
AACCACAG	-0.126

Sequence	PBM E-score
CAGGCCGG	-0.367
GCCGTACC	-0.175
ACGAAATA	0.292
CAGTCCGA	-0.0487
CCTGCCCA	-0.121
CCGTGGAG	-0.359
CATGCGAA	0.0815
CTGTAAAG	-0.184
CCCTCATC	-0.29
CCTCGCAG	-0.247
ACGCCAAT	0.21
ATTGTGAG	-0.058
AATAGACG	0.19
CCGCGGGC	-0.257
CTAAATGA	0.148
AAGCCCTC	-0.252
TCATAAAA	0.175
ACACATAC	0.124
AAAGTGGT	-0.118
ATCAAGCC	0.0831
CAAAACGG	0.0476
GCTCTTCC	-0.105
AAACCGAC	-0.0582
ATCTCTGA	0.0221
CCTAACCG	-0.0687

Sequence	PBM E-score
ATTCATCG	-0.0686
CGTGCCGC	0.117
ACACTGAG	-0.066
ACTTGAAG	0.0742
CAGAAACA	0.0257
GCAAACTA	0.11
AATCCGAT	0.101
CCAGTGTC	-0.0627
GGACTGAA	-0.156
ACACCTAA	0.101
AGCGGTTC	-0.043
ACGGAATG	-0.00815
ACAGATGA	0.188
AACACCCT	-0.108
AAACCAGA	-0.0291
ACGGGGAA	-0.0141
AGCGATGC	-0.163
ATTGGTAA	0.0745
GCGTGGCC	-0.148
AGAATCAT	0.0958
CGGCCTTA	-0.0725
ACAAGTGC	-0.0489
CTCGAGCA	-0.0339
CTTCATCC	-0.23
TTAATCAA	0.178

Sequence	PBM E-score
CCGAGACC	-0.224
GTACTATA	0.0801
CAGGAAAC	-0.037
AACTTACG	0.408
AAGTTGAC	0.102
CATCACCC	0.0865
ACAGCGCT	-0.0271
GGAGCAAC	-0.138
GTGAAAAC	-0.0336
AGCGAAGC	-0.0755
CAAAAGCA	-0.132
GGGAAACC	-0.15
AAATCCGG	-0.0997
GAACCGAA	0.204
CGGGGCTC	-0.336
AGGTAAAT	0.131
GGTGATAA	-0.0465
CGAGGGGA	-0.0949
CGTTAATC	0.168
CTAAACAA	-0.0909
ATCCCCCG	-0.282
ACCAACCT	-0.0573
GCTATTAC	0.268
GGATGCCA	-0.24
GGTCAGTA	-0.0692

Sequence	PBM E-score
GGGAATAC	0.0701
ACAGTCTA	0.0251
CCACTTGA	-0.0716
TAGCACTA	-0.0604
ACCTGCTC	-0.157
CCCCACTC	-0.334
AGCTGGCG	-0.16
TAGAGTGA	-0.0201
CATGTAAC	0.0916
AGACTAAT	-0.121
ACCAGATA	0.0936
CACCAATA	0.0102
GAGCCGTA	-0.0668
GCAATTCA	-0.0438
CGCACGTC	0.333
CATTTGGG	0.0189
AAGTCTAT	-0.0881
CAAAGGAA	0.0737
CGCTATTA	0.0982
